Results from the supplement of paper PMC9446081.
The whole screen tested about 39,000 compounds, of which about 220 (0.56%) showed activity. This is one part of the list.

These compounds were tested on Escherichia coli K-12 BW25113 (assay: relative growth (OD600 normalised to plate interquartile mean) (fraction); higher = less growth inhibition, active = 0.2 or less). Settings: 50 µM; LB; incubation time: overnight (16-24 h).
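Further: static incubation at 37 °C against the wild-type strain, values averaged over two biological replicates.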

**Q.** How did the relative growth turn out when `O=C1Nc2ccccc2O[C@@H]1CCO` was run?
**A.** inactive: 0.964

**Q.** Which relative growth does the source give for `CC(C)NC(=O)N(C)C[C@H]1Oc2ccc(NS(=O)(=O)c3ccc(Cl)cc3)cc2CC(=O)N([C@@H](C)CO)C[C@@H]1C` here?
**A.** inactive: 0.997

**Q.** How did the relative growth turn out when `C[C@H]1CCCCO[C@H](CN(C)Cc2ccc(C(=O)O)cc2)[C@@H](C)CN([C@@H](C)CO)C(=O)c2cc(NS(=O)(=O)c3ccccc3)ccc2O1` was run?
**A.** inactive: 1

**Q.** Which relative growth does the source give for `C[C@H]1CN([C@@H](C)CO)C(=O)c2cccc(NS(=O)(=O)c3cn(C)cn3)c2O[C@H]1CN(C)Cc1ccc(C(=O)O)cc1` here?
**A.** inactive: 0.977

**Q.** Which relative growth does the source give for `C[C@@H]1CN([C@@H](C)CO)C(=O)c2cc(NC(=O)CCCN(C)C)ccc2O[C@H]1CN(C)Cc1ccccc1` here?
**A.** inactive: 1.02

**Q.** `CNC[C@H]1OCCCC[C@@H](C)Oc2ccc(NC(=O)c3ccncc3)cc2C(=O)N([C@@H](C)CO)C[C@@H]1C` was tested. Which relative growth did it give?
**A.** inactive: 0.988

**Q.** How did the relative growth turn out when `C[C@H]1CCCCO[C@@H](CN(C)CC2CCCCC2)[C@@H](C)CN([C@@H](C)CO)C(=O)c2cc(NC(=O)NC3CCCCC3)ccc2O1` was run?
**A.** inactive: 0.976

**Q.** With `CC(C)c1ccc2c(ccc[n+]2C)c1` as the compound, how does the relative growth read?
**A.** inactive: 1.01

**Q.** With `c1ccc(COCc2ccccc2)cc1` as the compound, how does the relative growth read?
**A.** inactive: 1.01

**Q.** `Cc1noc(C)c1NC(=O)N(C)C[C@H]1Oc2ccc(NC(=O)C3CC3)cc2CC(=O)N([C@@H](C)CO)C[C@H]1C` was tested. Which relative growth did it give?
**A.** inactive: 0.987

**Q.** How did the relative growth turn out when `C[C@@H]1CN([C@H](C)CO)C(=O)c2cc(NC(=O)Cn3cnnn3)ccc2O[C@@H]1CN(C)CC1CCCCC1` was run?
**A.** inactive: 1.01

**Q.** How did the relative growth turn out when `COc1ccc(CN(C)C[C@H]2Oc3ccc(NC(=O)Nc4ccc(C(F)(F)F)cc4)cc3CC(=O)N([C@H](C)CO)C[C@H]2C)cc1` was run?
**A.** inactive: 1.02

**Q.** How did the relative growth turn out when `COCC#Cc1ccc2c(c1)O[C@H](CN(C)S(=O)(=O)c1ccc(F)cc1)[C@H](C)CN([C@@H](C)CO)S2(=O)=O` was run?
**A.** inactive: 1.01

**Q.** `COc1ccc(S(=O)(=O)Nc2ccc3c(c2)C(=O)N([C@@H](C)CO)C[C@H](C)[C@@H](CN(C)S(=O)(=O)c2ccccc2)O3)cc1` was tested. Which relative growth did it give?
**A.** inactive: 1.01

**Q.** For `CCOc1ccc(S(N)(=O)=O)cc1`, which relative growth is on record?
**A.** inactive: 0.947

**Q.** With `COc1ccc(S(=O)(=O)Nc2ccc3c(c2)C(=O)N([C@H](C)CO)C[C@H](C)[C@@H](CN(C)C(=O)NC(C)C)O3)cc1` as the compound, how does the relative growth read?
**A.** inactive: 0.999

**Q.** Which relative growth does the source give for `O=S1(=O)NCNc2ccccc21` here?
**A.** inactive: 0.991

**Q.** Which relative growth does the source give for `O=C(N[C@H](c1ccc2ccccc2n1)c1cccs1)C1CCN(Cc2cccc(C(F)(F)F)c2)CC1` here?
**A.** inactive: 0.995

**Q.** With `C[C@H](CO)N1C[C@H](C)[C@@H](CN(C)C(=O)C2CCCCC2)OCCCC[C@H](C)Oc2ccc(NS(=O)(=O)c3ccccc3)cc2C1=O` as the compound, how does the relative growth read?
**A.** inactive: 1.01

**Q.** `Cn1nc(C(=O)O)c2ccccc2c1=O` was tested. Which relative growth did it give?
**A.** inactive: 1.01

**Q.** With `COCC#Cc1ccc2c(c1)O[C@H](CN(C)S(=O)(=O)c1ccc(F)cc1)[C@@H](C)CN([C@@H](C)CO)S2(=O)=O` as the compound, how does the relative growth read?
**A.** inactive: 0.995

**Q.** `C[C@H]1CN([C@@H](C)CO)C(=O)CCCn2nncc2CO[C@H]1CN(C)C(=O)Nc1cccc(Oc2ccccn2)c1` was tested. Which relative growth did it give?
**A.** inactive: 0.989

**Q.** With `O=C1/C(=C/C=C/c2ccco2)CCC/C1=C\C=C\c1ccco1` as the compound, how does the relative growth read?
**A.** inactive: 0.991

**Q.** How did the relative growth turn out when `O=C(C[C@@H]1C=C[C@@H](NC(=O)CN2CCOCC2)[C@@H](CO)O1)NCCc1ccccc1` was run?
**A.** inactive: 1.04

**Q.** With `CC(C)NC(=O)Nc1ccc2c(c1)C(=O)N([C@H](C)CO)C[C@H](C)[C@@H](CN(C)Cc1ccc(C(F)(F)F)cc1)OCCCC[C@H](C)O2` as the compound, how does the relative growth read?
**A.** inactive: 1.01

**Q.** Which relative growth does the source give for `C[C@@H]1CN([C@@H](C)CO)C(=O)Cc2cc(NC(=O)Nc3cccc4ccccc34)ccc2O[C@H]1CN(C)Cc1ccc(C(F)(F)F)cc1` here?
**A.** inactive: 1.04

**Q.** `C[C@@H]1CN([C@H](C)CO)C(=O)c2cc(NS(=O)(=O)c3ccc(F)cc3)ccc2O[C@H]1CN(C)S(C)(=O)=O` was tested. Which relative growth did it give?
**A.** inactive: 1

**Q.** `C[C@@H]1CCCCO[C@H](CN(C)S(=O)(=O)c2cccs2)[C@@H](C)CN([C@@H](C)CO)C(=O)c2cc(NC(=O)Nc3ccc(F)cc3)ccc2O1` was tested. Which relative growth did it give?
**A.** inactive: 1.01

**Q.** `Nc1c(O)cccc1C(=O)C[C@H](N)C(=O)O` was tested. Which relative growth did it give?
**A.** inactive: 1.02

**Q.** Which relative growth does the source give for `COc1ccc(S(=O)(=O)N2C[C@@H](O)COC[C@@H]3O[C@@H](CC(=O)NCc4ccc(Cl)c(Cl)c4)CC[C@H]32)cc1` here?
**A.** inactive: 1.03

**Q.** Which relative growth does the source give for `CCNC(=O)C[C@@H]1CC[C@@H]2[C@H](COC[C@H](O)CN2C(=O)Nc2c(C)noc2C)O1` here?
**A.** inactive: 1

**Q.** With `Cc1ccc(S(=O)(=O)N(C)C[C@H]2Oc3ccc(NC(=O)NC(C)C)cc3C(=O)N([C@@H](C)CO)C[C@@H]2C)cc1` as the compound, how does the relative growth read?
**A.** inactive: 0.978

**Q.** `CCc1cn(C2OCC(O)C2CO)c(=O)nc1O` (configuration not stated) was tested. Which relative growth did it give?
**A.** inactive: 1.02

**Q.** How did the relative growth turn out when `Cc1cccc(N2C[C@@H](CN)OC2=O)c1` was run?
**A.** inactive: 0.93

**Q.** Which relative growth does the source give for `CO[C@@H]1CN(C)C(=O)c2ccc(NS(=O)(=O)c3cn(C)cn3)cc2OC[C@@H](C)N(CCC(F)(F)F)C[C@H]1C` here?
**A.** inactive: 1.03

**Q.** With `C[C@@H]1CCCCO[C@H](CN(C)C(=O)Nc2cccc3ccccc23)[C@H](C)CN([C@@H](C)CO)C(=O)c2cc(N(C)C)ccc2O1` as the compound, how does the relative growth read?
**A.** inactive: 0.993

**Q.** With `Cc1noc(C)c1NC(=O)Nc1ccc2c(c1)CC(=O)N([C@@H](C)CO)C[C@@H](C)[C@H](CN(C)Cc1ccc(C(F)(F)F)cc1)O2` as the compound, how does the relative growth read?
**A.** inactive: 1.04

**Q.** With `Cc1noc(C)c1S(=O)(=O)Nc1ccc2c(c1)C(=O)N([C@H](C)CO)C[C@@H](C)[C@@H](CN(C)S(=O)(=O)c1ccccc1)O2` as the compound, how does the relative growth read?
**A.** inactive: 0.978

**Q.** How did the relative growth turn out when `C[C@H]1CN([C@@H](C)CO)C(=O)Cc2cc(N(C)C)ccc2O[C@H]1CN(C)S(=O)(=O)c1ccc(F)cc1` was run?
**A.** inactive: 0.991

**Q.** Which relative growth does the source give for `c1ccc2c(CSc3nc4ccccc4s3)cccc2c1` here?
**A.** inactive: 1.04

**Q.** How did the relative growth turn out when `O=C(O)[C@H](O)[C@@](O)(Cc1ccc(O)cc1)C(=O)O` was run?
**A.** inactive: 0.979

**Q.** For `Cc1cnc(C(=O)NCCc2ccc(S(=O)(=O)NC(=O)NC3CCCCC3)cc2)cn1`, which relative growth is on record?
**A.** inactive: 1.15

**Q.** For `C[C@@H]1CCCCO[C@H](CN(C)CC2CCCCC2)[C@H](C)CN([C@@H](C)CO)C(=O)c2cc(NS(=O)(=O)c3ccc(Cl)cc3)ccc2O1`, which relative growth is on record?
**A.** inactive: 0.994

**Q.** Which relative growth does the source give for `COc1ccc(S(=O)(=O)Nc2ccc3c(c2)C(=O)N([C@H](C)CO)C[C@H](C)[C@@H](CN(C)Cc2ccc(C(=O)O)cc2)OCCCC[C@@H](C)O3)cc1` here?
**A.** inactive: 0.989

**Q.** With `CCS(=O)(=O)N1CC[C@]2(CC1)CN([C@@H](CO)c1[nH]c3cc(ccc3c12)OC)C(=O)Cc1ccccn1` as the compound, how does the relative growth read?
**A.** inactive: 0.997

**Q.** Which relative growth does the source give for `C[C@@H]1CN([C@H](C)CO)C(=O)c2cc(NC(=O)NC3CCCCC3)ccc2O[C@H]1CN(C)C(=O)Nc1ccc(C(F)(F)F)cc1` here?
**A.** inactive: 1.01

**Q.** `CNC(=O)C[C@@H]1CC[C@@H]2[C@@H](COc3ccc(NC(=O)c4ccc(C(F)(F)F)cc4)cc3C(=O)N2C)O1` was tested. Which relative growth did it give?
**A.** inactive: 1

**Q.** Which relative growth does the source give for `CC(C)NC(=O)Nc1ccc2c(c1)C(=O)N([C@H](C)CO)C[C@@H](C)[C@@H](CN(C)C(=O)C1CCCCC1)OCCCC[C@@H](C)O2` here?
**A.** inactive: 1.01

**Q.** With `Cc1noc(C)c1S(=O)(=O)N(C)C[C@H]1Oc2ccc(NS(=O)(=O)c3cn(C)cn3)cc2C(=O)N([C@H](C)CO)C[C@H]1C` as the compound, how does the relative growth read?
**A.** inactive: 1.02

**Q.** Which relative growth does the source give for `C[C@@H]1[C@@H]([Si](C)(C)F)[C@H](CCO)O[C@@]12C(=O)N(Cc1ccccc1)c1ccc(N(C=O)c3ccccc3)cc12` here?
**A.** inactive: 1.02

**Q.** `Nc1nc(N)nc(-c2cc(Cl)ccc2Cl)n1.O=C(O)C=CC(=O)O` was tested. Which relative growth did it give?
**A.** inactive: 1.04

**Q.** For `CCCC#Cc1ccc2c(c1)O[C@@H](CN(C)S(=O)(=O)c1cccc(F)c1)[C@@H](C)CN([C@H](C)CO)S2(=O)=O`, which relative growth is on record?
**A.** inactive: 1.01

**Q.** With `C[C@@H]1CN([C@@H](C)CO)C(=O)c2cccc(NC(=O)Nc3ccc(F)cc3)c2O[C@H]1CN(C)Cc1ccc(C(=O)Nc2ccccc2N)cc1` as the compound, how does the relative growth read?
**A.** inactive: 0.983

**Q.** Which relative growth does the source give for `C[C@@H]1CN([C@@H](C)CO)C(=O)c2cc(NC(=O)c3ccccc3)ccc2O[C@@H](C)CCCCO[C@H]1CN(C)C(=O)c1ccccc1` here?
**A.** inactive: 1

**Q.** For `COc1ccc(S(=O)(=O)Nc2ccc3c(c2)C(=O)N([C@H](C)CO)C[C@@H](C)[C@H](CN(C)C(=O)C2CCCCC2)OCCCC[C@@H](C)O3)cc1`, which relative growth is on record?
**A.** inactive: 1.01

**Q.** How did the relative growth turn out when `O=C(C[C@H]1CC[C@@H]2[C@H](COC[C@H](O)CN2S(=O)(=O)c2ccc(F)cc2)O1)N[C@H]1CCN(Cc2ccccc2)C1` was run?
**A.** inactive: 0.939

**Q.** How did the relative growth turn out when `CC(C)NC(=O)Nc1ccc2c(c1)C(=O)N([C@H](C)CO)C[C@H](C)[C@H](CN(C)C(=O)Nc1ccccc1)OCCCC[C@H](C)O2` was run?
**A.** inactive: 1.01

**Q.** Which relative growth does the source give for `Cc1noc(C)c1NC(=O)Nc1ccc2c(c1)C(=O)N([C@H](C)CO)C[C@H](C)[C@H](CN(C)C(=O)Cc1ccccc1)OCCCC[C@H](C)O2` here?
**A.** inactive: 1.02

**Q.** How did the relative growth turn out when `COc1ccc(S(=O)(=O)Nc2ccc3c(c2)CC(=O)N([C@H](C)CO)C[C@H](C)[C@H](CN(C)C(=O)NC(C)C)O3)cc1` was run?
**A.** inactive: 0.983

**Q.** With `COc1cccc(S(=O)(=O)N2C[C@@H](O)COC[C@H]3O[C@@H](CC(=O)N4CCN(C)CC4)CC[C@@H]32)c1` as the compound, how does the relative growth read?
**A.** inactive: 1.03

**Q.** Which relative growth does the source give for `Cc1noc(C)c1NC(=O)Nc1ccc2c(c1)C(=O)N([C@H](C)CO)C[C@H](C)[C@@H](CN(C)C(=O)Nc1cccc3ccccc13)O2` here?
**A.** inactive: 0.995

**Q.** With `C[C@@H]1CN([C@@H](C)CO)C(=O)c2cc(NC(=O)Nc3ccc(C(F)(F)F)cc3)ccc2O[C@@H](C)CCCCO[C@@H]1CN(C)S(=O)(=O)c1ccc(F)cc1` as the compound, how does the relative growth read?
**A.** inactive: 0.993
